From PubChem BioAssay AID1963874 (Molecular Pharmacology Branch, DTP, NCI, 2024)
For part of its entries the source gives two or more results. Only these are listed. There may be further records. Values given together are repeats in other runs, samples, wells, individuals or studies. Marks such as [2022-09] give the month of the run. Counts like (3×) count equal records among those shown.

Test system: 253994-281-T-J1-PDC KRAS-mutant spheroids with HUVEC/MSC, viability
Experiment: Anticancer human tumor 253994-281-T-J1-PDC patient-derived colorectal carcinoma cell line growth inhibition [KRAS2]
Conditions: for IC50: compound alone; for viability, T/C: stronger effect = lower value
Text: Multicellular complex tumor spheroid response to RAS pathway inhibitors in combination with a targeted agents in patient-derived cell lines with oncogenic KRAS variants from multiple cancer types
A high-throughput screen of multi-cell type tumor spheroids was designed to identify active combinations of targeted small molecules and KRAS pathway inhibitors. Complex spheroids include a stromal component modeled by human endothelial cells (HUVEC) and fibroblasts modeled by human mesenchymal stem cells (MSCs). The concentration ranges selected for each drug and investigational agent were based upon clinically achievable concentrations if the clinical Cmax of the agent was known.
Compounds. The drugs and investigational agents: BI-3406 (NSC825286), BAY-293 (NSC824723), batoprotafib (TNO155; NSC825523), sotorasib (AMG 510; NSC818433), MRTX1257 (NSC819558), elimusertib (BAY 1895344; NSC800525), molibresib (GSK525762; NSC774829), temuterkib (LY3214996; NSC803410), venetoclax (NSC766270), alisertib (NSC759677), olaparib (NSC753686), talazoparib (NSC767125), erdafitinib (NSC781556), ipatasertib (NSC767898), cabozantinib (NSC761068), nintedanib (NSC756659), abemaciclib (NSC768073), docetaxel (NSC628503), trametinib (NSC758246), and sapanisertib (NSC764658) were obtained from the National Cancer Institute (NCI) Developmental Therapeutics Program Chemical Repository. The FDA-approved anticancer drug set is available from the Developmental Therapeutics Program. […] The stock solutions were prepared in dimethyl sulfoxide (DMSO, Sigma-Aldrich, St. Louis, MO, cat. D2650) at 800-fold the tested concentration and stored at -70 degrees C prior to their use. All drugs and investigational agents were tested over a range starting from a high concentration at or near the clinical Cmax and decreasing in half-log increments. If the clinical Cmax for an agent had not been determined, the highest concentration tested was 10 microM.
Cell Culture. All cells were maintained in an incubator at 37 degrees C and 5% CO2 with 95% humidity. The PDC lines were cultured according to standard operating procedures established by the NCI PDMR (https://pdmr.cancer.gov/sops/default.htm). Briefly, all PDCs were thawed and cultured in Matrigel-coated flasks prepared with a working solution of 1X Ham's F-12 nutrient mix, without supplementation (Invitrogen, Waltham, MA, cat. 11765054), 100 U/mL penicillin-streptomycin (Invitrogen, cat. 15140122), and 2.5% Matrigel (Corning Inc., Corning, NY, cat. 354248) for the first three passages. All PDCs were cultured in complete DMEM/F-12 media containing advanced DMEM/F-12 (Invitrogen, cat. 12634028), 4.9% defined fetal bovine serum, heat inactivated (HyClone Laboratories Inc., Logan, UT, cat. SH30070.03HI), 389 ng/mL hydrocortisone (Sigma-Aldrich, cat. H4001), 9.7 ng/mL human EGF recombinant protein (Invitrogen, cat. PHG0313), 23.4 microg/mL adenine (Sigma-Aldrich, cat. A2786), 97.3 U/mL penicillin-streptomycin (Invitrogen, cat. 15140122), 1.9 mM L-glutamine (Invitrogen, cat. 25030081), and 9.7 microM Y-27632 dihydrochloride (Tocris Bioscience, Bristol, United Kingdom, cat. 1254). The PDCs were cultured in complete DMEM/F12 media without 9.7 microM Y-27632 dihydrochloride for at least two passages prior to the screen. The established cell line HOP-62 was cultured in RPMI 1640 medium, HEPES (Invitrogen, cat. 22400105) with 10% defined fetal bovine serum (HyClone Laboratories Inc., cat. SH30070.03) and 2 mM L-glutamine (Invitrogen, cat. 25030081). The pooled donor HUVEC were cultured in endothelial cell growth medium 2 (PromoCell, Heidelberg, Germany, cat. C-22011) and the hMSC were cultured in mesenchymal stem cell growth medium 2 (PromoCell, cat. C-28009). For all experiments, HUVEC and hMSC were used at passages </=5, while the malignant cell lines were used at passages </=15. […]
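Further: spheroids exposed to agents for seven days before readout.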
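Wherever viability, T/C is given: percent of DMSO vehicle control viability.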

SMILES	viability, T/C (compound alone 10 µM)	viability, T/C (compound alone 0.1 µM)	viability, T/C (compound alone 1 µM)	viability, T/C (compound alone 3.16 µM)	viability, T/C (compound alone 0.316 µM)	also measured
COc1cc(OC)cc(N(CCNC(C)C)c2ccc3ncc(-c4cnn(C)c4)nc3c2)c1	36.7, 26.6, 59.5, 32.2, 34.7%	–	–	–	–	IC50: 7.49 µM, 6.78 µM, > 10 µM, 6.95 µM, 7.28 µM
C=CC(=O)N1CCN(c2nc(=O)n(-c3c(C)ccnc3C(C)C)c3nc(-c4c(O)cccc4F)c(F)cc23)C(C)C1 (configuration not stated)	67.2, 88.2, 94.3, 97.6, 118, 105, 93, 89.2, 96.7, 90.2, 92.7% [2021-08] and 101, 89.8, 94.2, 95.5, 95.3, 87.4% [2021-09]	91.4, 109, 104 (2×), 110, 108, 101 (2×), 103, 95.2, 102% [2021-08] and 97.5, 107, 105, 98.9, 81.7, 85.6% [2021-09]	74.8, 92.9, 83.5, 102 (2×), 90.1, 105, 112, 107, 103, 106% [2021-08] and 93.5, 96.7, 83.7, 97.2, 102, 93.8% [2021-09]	85.6, 81.7, 105, 106, 94.5, 104, 90.5, 83.9, 94.1, 102, 108% [2021-08] and 96.9, 100, 92.9, 90.4, 96.1, 90.5% [2021-09]	–	–
Cn1ncnc1[C@H]1c2n[nH]c(=O)c3cc(F)cc(c23)N[C@@H]1c1ccc(F)cc1	–	85.2, 75.4, 103, 88.5, 99.4%	–	–	–	viability, T/C (compound alone 0.00316 µM): 110, 88.3, 114, 102, 98.5%
C=CC(=O)N1CCN(c2nc(OCC3CCCN3C)nc3c2CCN(c2cccc4cccc(C)c24)C3)CC1CC#N (configuration not stated)	–	–	111, 92.8, 91.7, 72.9 (2×), 96.2, 91.6, 86.6, 84.7, 80.7, 86.4% [2021-08] and 85.2, 93.2, 90.8, 107, 92.1, 97.6% [2021-09]	96, 39.6, 24.2, 11.3, 10.2, 7.14, 62.4, 60.2, 23.3, 43.3, 13.5% [2021-08] and 67.1, 85.1, 66.2, 77.6, 58.3, 55.3% [2021-09]	104, 77.2, 83.3, 91.7, 77, 83.8, 86.7, 101, 93.4, 96.8, 95.9% [2021-08] and 86.8, 93.1, 93.4, 98.7, 97.7, 96.1% [2021-09]	IC50 (run of 08/19/2021): > 3.16 µM, 2.43 µM, 2 µM, 1.53 µM, 1.5 µM, 1.73 µM; IC50 (run of 08/26/2021): > 3.16 µM, 1.92 µM, 2.58 µM, 1.78 µM
COc1cc(Nc2ncc3c(n2)-c2ccc(Cl)cc2C(c2c(F)cccc2OC)=NC3)ccc1C(=O)O	–	–	–	79.9, 61.6, 43.9, 49.7, 50.6%	–	IC50: < 31.6 nM and > 10 µM
CC1OCC2(CCN(c3cnc(Sc4ccnc(N)c4Cl)c(N)n3)CC2)C1N (configuration not stated)	46.7, 68.3, 41.8, 36.9, 31.7, 27.8, 34.7, 40.6, 50.4, 40.9, 36.5% [2021-08] and 53, 56, 55.9, 55.5, 44.4, 57.4, 49.9, 48.5, 54.4% [2021-09]	89.6, 85.2, 86.2, 78.4, 85.7, 74.2, 88.4, 95.8, 92, 88.6, 101% [2021-08] and 90.2, 98.5, 107, 102, 96.2, 86.1, 84.3, 80.8% [2021-09]	83.1, 84.9, 88.5, 58.4, 63.3, 57.6, 69, 71.5, 76.3, 79.4, 70.1% [2021-08] and 83.2, 85.8, 86.4, 77.8, 81.1, 77.3, 81.7, 68.6% [2021-09]	49.7, 41.1, 58.7, 49, 44.1, 51.1, 57.4, 65.8, 63.2, 71.5, 55.5% [2021-08] and 69.2, 69.3, 78.2, 75.9, 62.8, 74.7, 64.7, 66.3, 78.4% [2021-09]	83.5, 77.2, 84.6, 68.1, 76.5, 57.2, 80.1, 85.7, 79, 87.5, 86.2% [2021-08] and 89.6, 86, 88.8 (2×), 83.9, 91.9, 75.8, 81.1% [2021-09]	IC50 (run of 08/19/2021): 3.13 µM, > 10 µM, 5.72 µM, 2.5 µM, 2.24 µM, 2.11 µM; IC50 (run of 08/26/2021): 4.3 µM, 6.3 µM, > 10 µM, 7.02 µM, 4.15 µM; IC50 (run of 09/02/2021): > 10 µM, 7.23 µM, 9.95 µM, 9.52 µM
COc1cc2nc(C)nc(NC(C)c3cc(N)cc(C(F)(F)F)c3)c2cc1OC1CCOC1 (configuration not stated)	72.4, 77.5, 91.6, 55.2, 77.1, 64.4, 89.7, 81.2, 80.5, 82.7, 78.9% [2021-08] and 82, 84.8, 77, 69.3, 79.7, 88.3% [2021-09]	75, 96.5, 97, 93.1, 75.7, 89.2, 94.5, 102, 87.6, 95.2, 93.5% [2021-08] and 91.6, 85.8, 95.5, 84.3, 94.3, 96.5% [2021-09]	63.7, 81.4, 104, 66.5, 73.5, 83.2, 86, 103, 74.1, 87, 77.2% [2021-08] and 77, 85.5, 91.8, 75.1, 91.2, 85.4% [2021-09]	66.5, 83.5, 80, 72.6, 63, 78, 90.2 (2×), 94.2, 92.7, 80.4% [2021-08] and 86.2, 87.5, 78.6, 81, 85.5, 90.2% [2021-09]	–	–
CC(C)NCC(C(=O)N1CCN(c2ncnc3c2C(C)CC3O)CC1)c1ccc(Cl)cc1 (configuration not stated)	–	–	–	97.7, 75, 101, 103, 81.3%	81.7, 99, 112, 103, 89.7%	–
CC1(C)CCC(CN2CCN(c3ccc(C(=O)NS(=O)(=O)c4ccc(NCC5CCOCC5)c([N+](=O)[O-])c4)c(Oc4cnc5[nH]ccc5c4)c3)CC2)=C(c2ccc(Cl)cc2)C1	78.5, 57.2, 64.1, 71.2, 84.8%	–	–	–	–	–
CNCc1ccccc1-c1csc(C(C)Nc2nc(C)nc3cc(OC)c(OC)cc23)c1 (configuration not stated)	–	92.6, 82.3, 97.8, 93.2, 76.4, 87, 93.8, 105, 87.2, 89.8, 106% [2021-08] and 98.4, 89.8, 88.4, 90.9, 94.1, 102% [2021-09]	84, 84.2, 82.1, 77.8, 70, 67.1, 81.7, 85.7, 80.3, 96.6, 92.9% [2021-08] and 76.5, 95, 77.1, 101, 87.9, 85.8% [2021-09]	95, 51.2, 25.6, 21.5, 19, 5.03, 44, 34, 39.1, 37.8, 35.6% [2021-08] and 47, 52.2, 30.1, 45, 47.2, 37.9% [2021-09]	82.3, 81.5, 105, 80.5, 80, 78.1, 92.1, 84.1, 95.7, 98.7, 89.1% [2021-08] and 87.5, 90.8, 87.4, 87.2, 97.8, 86.1% [2021-09]	IC50 (run of 08/19/2021): 1.37 µM and 5.22, 3.25, 1.93, 1.75, 1.57 µM [2021-08]
COC(=O)c1ccc2c(C(=Nc3ccc(N(C)C(=O)CN4CCN(C)CC4)cc3)c3ccccc3)c(O)[nH]c2c1	29.5, 12, 63.1, 39.5, 62.7%	–	–	–	–	IC50: 6.54 µM, 5.62 µM, > 10 µM, 7.65 µM
